The record followed here is patent publication US20110218157A1.

Test [1] has as its target inactivated DENV2 virons (strain 16681; Microbix Corp.) (Dengue virus 2, strain 16681) (UniProt P29990). In words: reverse ELISA: PAP-IC on DENV2 (16681) viron-coated plate, sample 1. On the technique in general: An ELISA detects its analyte on a solid surface through an enzyme-linked reagent.
Test [2] shares this target. The test can be described thus: reverse ELISA: PAP-IC on DENV2 (16681) viron-coated plate, sample 2.
Test [3] shares this target. The test can be described thus: reverse ELISA: PAP-IC on DENV2 (16681) viron-coated plate, sample 3.
Test [4] has the same target. The test can be described thus: reverse ELISA: PAP-IC on DENV2 (16681) viron-coated plate, sample 4.
The target is the same in test [5]. In words: reverse ELISA: PAP-IC on DENV2 (16681) viron-coated plate, average of 4.

In the case of “peroxidase-rabbit anti-peroxidase IgG immune complex (PAP complex) (from UniProt P00433 31-338)”, the OD405 nm in test [1] was 3.11 OD405 nm; in test [2], 3.09 OD405 nm; in test [3], 3.05 OD405 nm; in test [4], 3.08 OD405 nm. In test [5], this substance showed an OD405 nm (average) of 3.08 OD405 nm.
